# Source: paper PMC10726135
# Some of the results follow. At the low end of the ranking the order means little. The protein was read in a cell extract, so binding may be indirect.
# Molecular target: T1, HNF4alpha2 (COS-7 nuclear extract) (UniProt P41235)
# T1 sequence: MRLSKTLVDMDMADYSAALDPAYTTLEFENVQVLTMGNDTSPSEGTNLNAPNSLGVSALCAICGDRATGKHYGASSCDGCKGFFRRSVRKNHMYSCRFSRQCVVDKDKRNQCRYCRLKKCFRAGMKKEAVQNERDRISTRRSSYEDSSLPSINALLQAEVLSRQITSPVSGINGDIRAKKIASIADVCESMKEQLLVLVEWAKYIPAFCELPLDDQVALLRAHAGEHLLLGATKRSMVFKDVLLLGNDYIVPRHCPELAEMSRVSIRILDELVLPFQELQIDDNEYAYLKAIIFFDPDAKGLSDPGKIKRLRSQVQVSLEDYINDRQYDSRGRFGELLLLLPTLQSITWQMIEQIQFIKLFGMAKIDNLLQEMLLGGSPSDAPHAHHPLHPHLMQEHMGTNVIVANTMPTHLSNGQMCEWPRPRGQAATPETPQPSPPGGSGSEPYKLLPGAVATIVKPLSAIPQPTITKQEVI
# Test: protein-binding microarray
# Details: COS-7 nuclear extract on double-stranded Agilent 4x180k PBM; binding buffer, salt, pH and temperature not given; high values mean tight binding; double strand, one strand shown; sequences stand for … in …GCCTAGGGAGATTAGAGTATCGGTCGA
row,Sequence,binding signal (log2 normalized intensity)
1,CCGAGGTCCTGGGGCGATGCTTCCAAAGTC,-1.07
2,TTTGATAGGTGGTCTGTTTGTGAAACAGTG,1.96
3,TCGCCGTGTGACTGAGGGCTGACATGTCTT,0.213
4,TCATTATCTTCAGTCTAGAATCTGCAGCCC,0.566
5,ACTCTGGGGCAATAACCCTAGACACCGGGT,-1.07
6,GGTTGGCACGCTTAGGGAACAAAGGTCAGT,6.44
7,AGCTCTAAACCACCCAATCCTGCAGCATTC,-1.09
8,ACATTTCAGTATGAATGCCTTGGCCTCTGC,1.11
9,TGGCTGGCGGCTAGTGTACAGGTGACCTTT,7.2
10,TCTAGATGGGGTTGAGCAGACTAAAGGACT,-1.06
11,GAGTTTAGAATTTGAACTATGGTCATCTGA,2.69
12,TGCTAATGTCCTTTGGAGTGCTTTCATCTT,1.06
13,GTGGGTGGGAAAGGGTGCTCCAGGCAAAGG,0.0353
14,GTGGAGGCCAGCGCCAGGCTGGGGGCAGAG,-1.19
15,GTCTGCCTGACTCCAGAGTCCAAACTGGGA,2.17
16,GCAGAGTCCTGGGGAGGGTAAGCATGCTTG,-0.984
17,CACTGCAAATGATGTCTCTCATTGGAATGA,0.955
18,TGTTCCTCTGCCCCTCATCGAGGCCATCCC,2.33
19,GGGTAAAACCAAACTGCAGCTGCTGCACTG,-1.03
20,GGTGACCCCTCAGTTTTTCTCTTTTGACCT,4.09

row,Sequence,binding signal (log2 normalized intensity)
1,TACTGACTAAAGGTTAAACATGTACTCTGT,2.36
2,CTGCACACACTCACAGAACACAGTGTTTGC,-0.755
3,TCCTGGCAGTGTGGAAAAGCTGGCTGGCGG,-0.741
4,GAGCTGGCGGCGCGGCCGGAGCGGCGGACC,-1.12
5,TCCAACCTGTTCTTTTGAGCTGTGGTTAAG,1.67
6,GAACCGTGATTATCATCTTTTACTTAGCAA,-1.24
7,TTAAGTTGACTCCAATGCTCGTTGACCATT,1.17
8,AGTATCCAGCTCCTCTTCACACCATGCTCT,-0.739
9,ACCCTCTCTGGATGCAGGTCGCCGGGAAAA,0.448
10,CATCGGACTTTGATCTGCCACATACCTTTA,4.28
11,CGCTCCCAGAAGCCTCCGGTGTACCTCGCT,-1.12
12,TTACTCATTCCCAGGTCGGGCCGGAGAGGC,0.451
13,TCCTATCCTAGGGTTAAAGTCTACAACCAG,3.09
14,TGAGACTTCCCAGCTGCTGGTCAAAGGGCA,5.16
15,GGGCTATTGACAAAGACCAGTGCTCTTTCT,-1.11
16,ACCAAAACACTTGTGTCAACCGTGTCAACA,-1.09
17,GGACTTTTTTTTGCCTAACTGCTGCATGTC,-1.02
18,TATGAAATCTTATCAGAAGCTTACATATCA,-0.937
19,GGAGTGACCCTGGGAGCAAAGGTCAAGAGT,6.55
20,CCGCACCCAGCTTTCATCTCGGCTGGCTAC,-1.15
